Data reported in EPA's CvTdb concentration-time database.
This continues a long series; more values of the same kind are listed elsewhere.

Assays:
[1] = test system: Rat; assay: concentration in plasma after dosing; settings: dosed: 1-Chloro-2-propanol, 15 mg/kg, oral, Female, F344
[2] = test system: Rat; assay: concentration in plasma after dosing; settings: 0.5 h; dosed: 1-Chloro-2-propanol; 15 mg/kg; oral; Female; F344
[3] = test system: Rat; assay: concentration in plasma after dosing; settings: dosed: 1-Chloro-2-propanol, 15 mg/kg, oral, Female, F344; remark: listed apart in the source
[4] = test system: Rat; assay: concentration in plasma after dosing; settings: 40 min; dosed: 1-Chloro-2-propanol; 15 mg/kg; oral; Female; F344
[5] = test system: Rat; assay: concentration in plasma after dosing; settings: dosed: 1-Chloro-2-propanol, 15 mg/kg, oral, Female, F344; remark: listed apart in the source
[6] = test system: Rat; assay: concentration in plasma after dosing; settings: 40 min; dosed: 1-Chloro-2-propanol; 15 mg/kg; oral; Female; F344; remark: listed apart in the source
[7] = test system: Rat; assay: concentration in plasma after dosing; settings: dosed: 1-Chloro-2-propanol, 15 mg/kg, oral, Female, F344; remark: listed apart in the source
[8] = test system: Rat; assay: concentration in blood after dosing; settings: dosed: Naphthalene, 10 mg/kg, iv, Female, F344
[9] = test system: Rat; assay: concentration in blood after dosing; settings: dosed: Naphthalene, iv, Female, F344
[10] = test system: Rat; assay: concentration in blood after dosing; settings: dosed: Naphthalene, 10 mg/kg, iv, Female, F344; remark: listed apart in the source

CC(O)CCl (stereo unspecified) [1-Chloro-2-propanol]
Settings | concentration in plasma [ng/mL]
[1], 0.5 h | 1660
[1], 1.5 h | 350
[1], 40 min | 1320
[3], 1.5 h | 266
[3], 20 min | 4100
[5], 1.5 h | 304
[5], 20 min | 4540
[7], 0.5 h | 3230
[7], 2.5 h | 60

Settings | concentration in plasma [ng/mL]
[2] | 2290
[4] | 1220
[6] | 1630

c1ccc2ccccc2c1 [Naphthalene]
concentration in blood [ng/mL]
Settings | 1 h | 2 h | 4 h | 5 min | 6 h | 8 h | 10 min | 12 h | 20 min | 40 min
[8] | 392 | 192 | 78.8 | 12400 | 57.7 | 49.4 | 7510 | 30.2 | 1800 | 608
[10] | 241 | 236 | 103 | 10000 | 63.1 | 55.9 | 8610 | 29.5 | 2220 | 922

concentration in blood [ng/mL], [9]
Settings | 3 mg/kg | 10 mg/kg
1 h | 142 | 365
2 h | 57.7 | 204
2 min | 6780 | –
4 h | 29.8 | 95.2
5 min | 2930 | 8310
6 h | 24.5 | 61.9
8 h | – | 45
10 min | 3030 | 2270
12 h | – | 26.3
20 min | 529 | 2630
40 min | 260 | 1050
